# In PMC6919601, “Identification of Plasmodium dipeptidyl aminopeptidase allosteric inhibitors by high throughput screening” (PLoS ONE, 2019):
# Hit rate of the full screen: of about 110,000 compounds, about 230 (0.21%) showed an effect of 50% or more. Some of the results follow.
# Target: DPAP1 (Plasmodium falciparum, UniProt Q8IIJ9)
# Test: primary screen, percent inhibition; read by cleavage of a fluorogenic dipeptide substrate; higher = more effect of the substance
# Set-up: species or system P. falciparum D10 trophozoite lysates; single well
# 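Also: 30 min substrate incubation versus DMSO and 10 µM JCP410 controls.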
# Sequence of DPAP1 (Q8IIJ9 whole entry, looked up): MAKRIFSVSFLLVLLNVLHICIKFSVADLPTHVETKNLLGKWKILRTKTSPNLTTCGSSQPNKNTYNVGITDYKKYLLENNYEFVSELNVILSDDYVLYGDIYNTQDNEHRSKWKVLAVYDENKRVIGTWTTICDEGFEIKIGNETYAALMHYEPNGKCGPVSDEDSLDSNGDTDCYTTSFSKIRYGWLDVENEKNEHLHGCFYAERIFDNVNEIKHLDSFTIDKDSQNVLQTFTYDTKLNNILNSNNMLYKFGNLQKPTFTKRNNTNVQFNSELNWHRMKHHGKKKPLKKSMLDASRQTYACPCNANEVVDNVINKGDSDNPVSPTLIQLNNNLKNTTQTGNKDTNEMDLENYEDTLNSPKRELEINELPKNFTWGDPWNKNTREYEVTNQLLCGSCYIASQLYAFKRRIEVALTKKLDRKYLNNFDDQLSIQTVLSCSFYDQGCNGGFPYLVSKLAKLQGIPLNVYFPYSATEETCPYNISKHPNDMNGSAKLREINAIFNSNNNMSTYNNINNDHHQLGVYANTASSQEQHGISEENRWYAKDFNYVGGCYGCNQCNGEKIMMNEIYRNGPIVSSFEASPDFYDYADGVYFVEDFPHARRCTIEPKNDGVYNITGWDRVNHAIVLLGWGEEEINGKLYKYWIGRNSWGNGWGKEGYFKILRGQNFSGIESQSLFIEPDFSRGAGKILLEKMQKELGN
row,SMILES,% Inhibition @ 10 uM [%]
1,N#CC1=C(N)Oc2cc(O)ccc2C1c1cccc(Cl)c1Cl (centres unmarked),3.54
2,COc1cccc(C2=N/C(=C\c3cccc(OC)c3OC)C(=O)O2)c1,-4.27
3,COc1cccc(OC)c1-c1ccc(C(=O)N[C@@H](CC(C)C)C(=O)NCC#N)cc1,-10.1
4,COc1ccc(C2C(C#N)=C(N)Oc3cc(C)n(Cc4cccnc4)c(=O)c32)c(OC)c1OC (centres unmarked),-1.38
5,COc1cccc2c1OC(c1ccccc1F)N1N=C(c3ccccc3O)CC21 (centres unmarked),-3.48
6,Cc1cccc(NC(=O)CN2C(=O)S/C(=C\c3ccccn3)C2=O)c1,-2.83
7,CCOC(=O)c1c(C)sc(C(c2ccccc2)c2sc(C)c(C(=O)OCC)c2O)c1O,0.776
8,CCS(=O)(=O)N1CCC(C(=O)NCc2cc(OC)ccc2OC)CC1,-4.83
9,CN1CCC(N(C)Cc2ccoc2)CC1,-2.56
10,CCOc1ccc(CCNC(=O)c2cccs2)cc1OCC,2.4
11,O=C(CC1(O)OC(c2ccc(Cl)cc2)=CC1=O)c1ccc(Cl)cc1 (centres unmarked),-0.807
12,Cc1cccc(NC(=O)c2c(C(=O)O)cccc2[N+](=O)[O-])c1,5
13,COc1ccc(C2=N/C(=C\C=C\c3ccccc3)C(=O)O2)cc1,7.01
14,Cc1ccc(-c2cc(N)[nH]n2)cc1,-2.88
15,c1ccc(CN2CCN(Cc3ccsc3)CC2)cc1,0.847
16,O=c1oc2ccc(Br)cc2cc1-c1csnn1,1.02
17,Cc1ccc2oc(=O)c3cnn(CC(=O)N(CCCN4CCOCC4)Cc4ccco4)c3c2c1,7.66
18,C=CCn1c(CCCO)nc2ccccc21,4.08
19,CCOc1ccc(C2c3c(oc4ccccc4c3=O)C(=O)N2c2nnc(C)s2)cc1OCC (centres unmarked),-6.23
20,NC(=O)C1CCN(C(=O)C2CCCN(C(=O)c3cnn(-c4ccccc4)c3-n3cccc3)C2)CC1 (centres unmarked),-1.58
21,Cc1ccc(C(=O)Nc2sc3c(c2C(N)=O)CCCCC3)o1,-2.2
22,CCC1CCCCN1S(=O)(=O)c1ccc(Cl)c([N+](=O)[O-])c1 (centres unmarked),4.61
23,Cc1ccc(C)c(N(CC(=O)Nc2cccc(N(C)S(C)(=O)=O)c2)S(C)(=O)=O)c1,-1.24
24,O=C(NC1CCN(Cc2ccccc2)CC1)C1CCN(S(=O)(=O)c2cccc3cccnc23)CC1,-1.54
25,CC(C)CNS(=O)(=O)c1ccc(CCC(=O)Nc2cccc(C(F)(F)F)c2)cc1,-2.8

row,SMILES,% Inhibition @ 10 uM [%]
1,Fc1cccc(Cl)c1Cn1ncc2ccccc21,0.00706
2,O=S(=O)(c1ccc(Cl)cc1)N1CCN(c2cccc(Cl)c2)CC1,-1.62
3,COc1cccc(OCCCc2c(C)n[nH]c2C)c1,1.9
4,CCOC(=O)N1CCN(c2c(-c3ccc(Cl)cc3)c(=O)c2=O)CC1,-3.84
5,COc1ccc(CN(C(=O)c2cc(=O)c3cc(C)cc(C)c3o2)C2CCS(=O)(=O)C2)cc1 (centres unmarked),5.06
6,CC1CC(C)CN(Cc2nc3c(c(=O)n(C)c(=O)n3C)n2Cc2c(F)cccc2Cl)C1 (centres unmarked),-2.52
7,CN(CCCNC(=O)Cn1ncc2c(=O)oc3ccccc3c21)Cc1ccccc1,5.58
8,COc1ccc(/C=C2\N=C(c3ccc(F)cc3)OC2=O)c(OC)c1,-5.41
9,COc1ccc(CN(C(=O)COc2ccc(C)c(C)c2)C2CCS(=O)(=O)C2)cc1OC (centres unmarked),2.1
10,CC1=CC2=NC(=O)/C(=C\c3ccc(C)o3)C(=N)N2O1,3.63
11,Cc1ccc2c(CN(C)Cc3ccccc3)cc(=O)oc2c1,-3.49
12,COC(=O)c1cc(-c2ccccc2)nc2ccc(C)cc12,-1.46
13,O=c1c2sc3ccccc3c2n(Cc2ccccc2F)c(=O)n1Cc1ccco1,-2.92
14,Cc1ccc(C2CC(C(F)(F)F)n3ncc(C(=O)N4CCN(c5ccccc5)CC4)c3N2)cc1 (centres unmarked),2.53
15,CC1CCCCN1S(=O)(=O)c1ccc(NC(=O)c2ccc(C(C)(C)C)cc2)cc1 (centres unmarked),0.0152
16,Cc1ccccc1NC1(C#N)C(=O)Nc2ccccc21 (centres unmarked),-7.09
17,c1cncc(-c2nc(-c3c[nH]c4ccccc34)cs2)c1,2.51
18,O=c1/c(=C/c2cccs2)sc2nc(-c3ccccc3Br)nn12,0.561
19,COc1ccc(CCC(=O)Nc2ccc(C)cc2)cc1,-1.44
20,O=C(Nc1c2c(nn1-c1cccc(Cl)c1)CS(=O)(=O)C2)c1c(F)cccc1F,4.23
21,Cc1cc(-c2noc(Cc3ccccc3)n2)c2ccccc2n1,-0.403
22,CCOc1ccc2nc(N3CCC(C(=O)N4CCN(C(=O)c5ccco5)CC4)CC3)sc2c1,3.4
23,CCCn1c2ccccc2c2cnn(CC(=O)NCCCOC)c(=O)c21,3.95
24,CCOC(=O)c1c(N)sc2c1CCC1(CCCCC1)C2,2.4
25,Cc1cccn2c(=O)c(/C=C(\C#N)C(=O)N3CCOCC3)c(Oc3ccc(C(C)(C)C)cc3)nc12,2
